{"source": "the supplement of paper PMC10185492", "note": "Some of the results follow. These are enrichments in a pooled selection; single values are uncertain.", "data": [{"system": "SARS-CoV-2 3CLpro (nsp5)", "test": "substrate phage enrichment score (protease-eluted vs HEPES control, +1 offset) (ratio); higher = better cleaved substrate", "settings": "selection round: 4; protease elution time: 15 min", "protocol": "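Random heptapeptide substrate phage display (M13 pIII fusion, heptapeptide between an N-terminal biotinylated AviTag GLNDIFEAQKIEWHE and pIII; phages immobilised on streptavidin) eluted by cleavage with 50 nM protease in 20 mM HEPES at 37 °C. Selected phages were NGS sequenced, and the enrichment score is (reads in protease sample + 1)/(reads in HEPES blank-selection control + 1).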", "values": [{"substance": "SSHRKNG", "substrate phage enrichment score": 4.4}, {"substance": "TARPMTG", "substrate phage enrichment score": 0.524}, {"substance": "QLDCLRP", "substrate phage enrichment score": 2.71}, {"substance": "TQMCPRP", "substrate phage enrichment score": 0.778}, {"substance": "AWPSVVP", "substrate phage enrichment score": "> 100"}, {"substance": "QIQCATQ", "substrate phage enrichment score": 6.91}, {"substance": "RPETKQG", "substrate phage enrichment score": "> 28"}, {"substance": "CSLMSMF", "substrate phage enrichment score": "> 39"}, {"substance": "DGAAHHH", "substrate phage enrichment score": 0.316}, {"substance": "TTSPLWP", "substrate phage enrichment score": 1.18}, {"substance": "PTDVGAR", "substrate phage enrichment score": "> 30"}, {"substance": "SIEHFQG", "substrate phage enrichment score": 3.58}, {"substance": "WPPVQLQ", "substrate phage enrichment score": "> 181"}, {"substance": "LLPHIII", "substrate phage enrichment score": 0.857}, {"substance": "NSRAVTH", "substrate phage enrichment score": 12.5}, {"substance": "AYKTSHM", "substrate phage enrichment score": 0.087}, {"substance": "VPDKSSR", "substrate phage enrichment score": 1.47}, {"substance": "ESASILQ", "substrate phage enrichment score": "> 234"}, {"substance": "RVQCPRC", "substrate phage enrichment score": "> 30"}, {"substance": "ASQKRPR", "substrate phage enrichment score": "> 25"}, {"substance": "GGAAHHH", "substrate phage enrichment score": 0.722}, {"substance": "WNRRDEP", "substrate phage enrichment score": 3}, {"substance": "RDIRHSR", "substrate phage enrichment score": "> 49"}, {"substance": "HTLKEES", "substrate phage enrichment score": 0.0952}, {"substance": "EMYFQGG", "substrate phage enrichment score": 0.923}, {"substance": "PQVIEQH", "substrate phage enrichment score": 1.77}, {"substance": "NATQPTR", "substrate phage enrichment score": 3.43}, {"substance": "LISDNLP", "substrate phage enrichment score": "> 39"}, {"substance": "QPGYGSC", "substrate phage enrichment score": "> 41"}, {"substance": "CSPRSRP", "substrate phage enrichment score": "> 78"}, {"substance": "ISAPEAH", "substrate phage enrichment score": 1.83}, {"substance": "SPSRTPC", "substrate phage enrichment score": 14}, {"substance": "ACKREHW", "substrate phage enrichment score": 0.706}, {"substance": "TEHSQNR", "substrate phage enrichment score": "> 25"}, {"substance": "TCRSLKE", "substrate phage enrichment score": "> 35"}, {"substance": "VRVIRMG", "substrate phage enrichment score": 2.56}, {"substance": "SGNSRLN", "substrate phage enrichment score": "> 47"}, {"substance": "AHRCRLQ", "substrate phage enrichment score": 10.5}, {"substance": "TPTAASQ", "substrate phage enrichment score": "> 45"}, {"substance": "HKAASSC", "substrate phage enrichment score": 0.114}, {"substance": "APSVTGS", "substrate phage enrichment score": 0.846}, {"substance": "LVTPWSH", "substrate phage enrichment score": 1.16}, {"substance": "ISGAHSQ", "substrate phage enrichment score": "> 33"}, {"substance": "AECCGMP", "substrate phage enrichment score": 23}, {"substance": "FDQKKAP", "substrate phage enrichment score": 1.2}, {"substance": "VVQGTAT", "substrate phage enrichment score": 0.179}, {"substance": "ANTLLQS", "substrate phage enrichment score": "> 21"}, {"substance": "GRSKAER", "substrate phage enrichment score": "> 24"}, {"substance": "HGTNVFR", "substrate phage enrichment score": "> 74"}, {"substance": "HCSDCAG", "substrate phage enrichment score": 1.54}, {"substance": "SQGGSAA", "substrate phage enrichment score": 0.761}, {"substance": "DNRSLLQ", "substrate phage enrichment score": "> 24"}, {"substance": "QNLMCHY", "substrate phage enrichment score": 1.53}, {"substance": "LRCGKDW", "substrate phage enrichment score": 2.33}, {"substance": "ARGVHLQ", "substrate phage enrichment score": "> 126"}, {"substance": "SAPRPDA", "substrate phage enrichment score": 1.23}, {"substance": "SNRRSPT", "substrate phage enrichment score": 3.86}, {"substance": "PTCFCRS", "substrate phage enrichment score": "> 23"}, {"substance": "ETLNCPY", "substrate phage enrichment score": 0.923}, {"substance": "ACGVRPT", "substrate phage enrichment score": 1.7}, {"substance": "CMLGQFG", "substrate phage enrichment score": "> 25"}, {"substance": "VTRGNAS", "substrate phage enrichment score": 10.5}, {"substance": "DCPAAHH", "substrate phage enrichment score": "> 28"}, {"substance": "VVSGGGF", "substrate phage enrichment score": 2}, {"substance": "AGTPRAK", "substrate phage enrichment score": "> 32"}, {"substance": "RTLSPLT", "substrate phage enrichment score": 6}, {"substance": "VANTYGC", "substrate phage enrichment score": "> 240"}, {"substance": "ASNPASL", "substrate phage enrichment score": 6.6}, {"substance": "TARSRQC", "substrate phage enrichment score": "> 21"}, {"substance": "SDRVWLQ", "substrate phage enrichment score": "> 63"}, {"substance": "WPSAAAH", "substrate phage enrichment score": 0.107}, {"substance": "APDRASC", "substrate phage enrichment score": "> 56"}, {"substance": "SESCGSS", "substrate phage enrichment score": "> 29"}, {"substance": "RHCICLP", "substrate phage enrichment score": "> 26"}, {"substance": "GLTTTPW", "substrate phage enrichment score": 2}, {"substance": "RCRHLEA", "substrate phage enrichment score": 1.86}, {"substance": "IAAAHHH", "substrate phage enrichment score": 0.606}, {"substance": "ANTQIGG", "substrate phage enrichment score": "> 27"}, {"substance": "ADSLRYW", "substrate phage enrichment score": 0.5}, {"substance": "DLLRESA", "substrate phage enrichment score": 1.2}, {"substance": "TDSTSAN", "substrate phage enrichment score": "> 28"}, {"substance": "ADAHHHH", "substrate phage enrichment score": 0.345}, {"substance": "GWYVKPP", "substrate phage enrichment score": 2.14}, {"substance": "RLPTVFE", "substrate phage enrichment score": 2.92}, {"substance": "ARCGAAA", "substrate phage enrichment score": "> 47"}, {"substance": "ANERWSD", "substrate phage enrichment score": 2}, {"substance": "SKKSSHE", "substrate phage enrichment score": 0.8}, {"substance": "NAVLHGQ", "substrate phage enrichment score": "> 23"}, {"substance": "DALRALR", "substrate phage enrichment score": "> 22"}, {"substance": "LPNFQGG", "substrate phage enrichment score": 9.83}, {"substance": "CEHEMRT", "substrate phage enrichment score": "> 25"}, {"substance": "AKLTPEH", "substrate phage enrichment score": 0.4}, {"substance": "AREEFDW", "substrate phage enrichment score": 0.688}, {"substance": "TNLSNSL", "substrate phage enrichment score": 13.8}, {"substance": "CSKETRG", "substrate phage enrichment score": 15}, {"substance": "SIEAKEF", "substrate phage enrichment score": 0.0833}, {"substance": "GAKVQLQ", "substrate phage enrichment score": "> 261"}, {"substance": "ALRCSTW", "substrate phage enrichment score": "> 30"}, {"substance": "GCADTFD", "substrate phage enrichment score": 0.643}, {"substance": "GQAAHHH", "substrate phage enrichment score": 0.528}, {"substance": "RAKCTYH", "substrate phage enrichment score": "> 34"}, {"substance": "KGGSAAA", "substrate phage enrichment score": 1.02}, {"substance": "IKHELSC", "substrate phage enrichment score": 3.59}, {"substance": "CVPTAKG", "substrate phage enrichment score": 1.92}, {"substance": "SKLQGAN", "substrate phage enrichment score": 13.8}, {"substance": "YLDPSLP", "substrate phage enrichment score": "> 65"}, {"substance": "SHWRPFR", "substrate phage enrichment score": "> 22"}, {"substance": "ERNCRLQ", "substrate phage enrichment score": "> 59"}, {"substance": "AKSYSRC", "substrate phage enrichment score": 8.8}, {"substance": "PSSRAQS", "substrate phage enrichment score": "> 25"}, {"substance": "KWEKNKP", "substrate phage enrichment score": 1.82}, {"substance": "DSMNSED", "substrate phage enrichment score": "> 29"}, {"substance": "QGRSSTT", "substrate phage enrichment score": 1.12}, {"substance": "RWPITNS", "substrate phage enrichment score": 11}, {"substance": "RKEAIAP", "substrate phage enrichment score": "> 32"}, {"substance": "SGHVSGT", "substrate phage enrichment score": 0.714}, {"substance": "SKLPVSS", "substrate phage enrichment score": "> 40"}, {"substance": "TCGAGAI", "substrate phage enrichment score": 0.467}, {"substance": "ACYRING", "substrate phage enrichment score": "> 30"}, {"substance": "PQLKSLD", "substrate phage enrichment score": 4.97}, {"substance": "ERIDKRD", "substrate phage enrichment score": "> 21"}, {"substance": "TRVTEPT", "substrate phage enrichment score": 0.222}, {"substance": "HGNSAGS", "substrate phage enrichment score": 1.56}, {"substance": "HKRCQFW", "substrate phage enrichment score": 3}, {"substance": "HFSEFGR", "substrate phage enrichment score": "> 98"}, {"substance": "HCVTQRR", "substrate phage enrichment score": "> 21"}, {"substance": "PKDCSVR", "substrate phage enrichment score": "> 27"}, {"substance": "VSRDPAP", "substrate phage enrichment score": "> 65"}, {"substance": "DRAGTDH", "substrate phage enrichment score": 0.719}, {"substance": "EFRKPSR", "substrate phage enrichment score": 14}, {"substance": "RHPGDLV", "substrate phage enrichment score": 4.05}, {"substance": "ATQRSRD", "substrate phage enrichment score": 7.33}, {"substance": "VSFQGGS", "substrate phage enrichment score": 2}, {"substance": "RETTFPW", "substrate phage enrichment score": 0.923}, {"substance": "LPGVGMW", "substrate phage enrichment score": 2}, {"substance": "RQCEPGT", "substrate phage enrichment score": 2.13}, {"substance": "GPDCNVR", "substrate phage enrichment score": 11.5}, {"substance": "PGSQMHC", "substrate phage enrichment score": 1.16}, {"substance": "ESRGMPN", "substrate phage enrichment score": 2.4}, {"substance": "QGTSSLQ", "substrate phage enrichment score": 0.278}, {"substance": "MRRVPPG", "substrate phage enrichment score": "> 23"}, {"substance": "SNRTNAH", "substrate phage enrichment score": "> 25"}, {"substance": "LYSEDMS", "substrate phage enrichment score": 0.185}, {"substance": "KPLLQSE", "substrate phage enrichment score": "> 24"}, {"substance": "PGQTCRR", "substrate phage enrichment score": 0.902}, {"substance": "LGKKPDH", "substrate phage enrichment score": 1.15}, {"substance": "AARLQCS", "substrate phage enrichment score": 80.5}, {"substance": "SRTRLRP", "substrate phage enrichment score": "> 23"}, {"substance": "RHLTGGQ", "substrate phage enrichment score": 1.42}, {"substance": "HHHGELR", "substrate phage enrichment score": "> 191"}, {"substance": "FKCPASS", "substrate phage enrichment score": "> 34"}, {"substance": "TTDNDLR", "substrate phage enrichment score": "> 24"}, {"substance": "TYLQGGS", "substrate phage enrichment score": 85.5}, {"substance": "RYMNVPE", "substrate phage enrichment score": 2.43}, {"substance": "LLPKAPE", "substrate phage enrichment score": 0.929}, {"substance": "AVQSGEY", "substrate phage enrichment score": 0.786}, {"substance": "SASISSE", "substrate phage enrichment score": "> 29"}, {"substance": "EKATSFG", "substrate phage enrichment score": 0.263}, {"substance": "AAAQQQH", "substrate phage enrichment score": 1.89}, {"substance": "VMFQADF", "substrate phage enrichment score": "> 145"}, {"substance": "DALPEPS", "substrate phage enrichment score": 0.4}, {"substance": "TRGLSAP", "substrate phage enrichment score": "> 34"}, {"substance": "REESSAH", "substrate phage enrichment score": "> 27"}, {"substance": "PQVEQPY", "substrate phage enrichment score": 14.9}, {"substance": "HTKPAAR", "substrate phage enrichment score": 2.33}, {"substance": "NKPDLIW", "substrate phage enrichment score": 25.5}, {"substance": "VLSPQTK", "substrate phage enrichment score": "> 61"}, {"substance": "KSNSPYD", "substrate phage enrichment score": "> 24"}, {"substance": "RKTGDAT", "substrate phage enrichment score": "> 24"}, {"substance": "LVAPKTA", "substrate phage enrichment score": 1.27}, {"substance": "TDHDRQY", "substrate phage enrichment score": 1.82}, {"substance": "ARPGDYV", "substrate phage enrichment score": 3.4}, {"substance": "THSHRQG", "substrate phage enrichment score": 11}, {"substance": "AGHVNLQ", "substrate phage enrichment score": "> 239"}, {"substance": "MTSDLVG", "substrate phage enrichment score": "> 22"}, {"substance": "AIRFEGD", "substrate phage enrichment score": 3.73}, {"substance": "ARERVPG", "substrate phage enrichment score": "> 81"}, {"substance": "QPYPHLQ", "substrate phage enrichment score": "> 28"}, {"substance": "RETGVLV", "substrate phage enrichment score": 1.8}, {"substance": "ALHVCTG", "substrate phage enrichment score": 3.4}, {"substance": "AAAHNHH", "substrate phage enrichment score": 1.23}, {"substance": "NYSRCPR", "substrate phage enrichment score": "> 27"}, {"substance": "ARCVLQY", "substrate phage enrichment score": "> 40"}, {"substance": "SISGAQN", "substrate phage enrichment score": "> 21"}]}]}
